# Measurements as given in the supplement of paper PMC11417369.
# The other results are listed elsewhere or left out.
# System: PfAP2-HC AP2 domain (GST-tagged)
# Test: gcPBM binding intensity (ln(normalized median fluorescence intensity)); higher = stronger DNA binding
# Method in brief: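 Using an Agilent 4 × 180k array, primer-extended double-stranded 36-bp intergenic genomic probes and negative controls were exposed for 1 h to GST-fused P. falciparum DNA-binding domains expressed in E. coli. Binding was carried out in 1× PBS with 1% milk, 0.2 mg/ml BSA, 0.5% salmon testes DNA and 0.03% Triton X-100, and protein was detected with Alexa488 anti-GST antibody and a 488 nm scan. Binding intensity is the highest Masliner-normalised natural-log median intensity across replicate spots of either probe orientation.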
row,Sequence,gcPBM binding intensity (ln)
1,TAATAAAAGATATATACACACAAATAAATAAATAAA [CACACA_site7818],10
2,AAAAAAAAATATATATATATATATATAAATAAATTT [CACACA_negctrl_site519],9.8
3,ATAATATAAACATATTGTACACATATATTGCTATTT [XGTACX_site2799],9.82
4,AAATATAAAAAAAATATATAATTTTTACATCGAATT [CACACA_negctrl_site544],9.53
5,AACGAGCAAGACGGGGTGCACACAAACTAATATGCC [GTGCAC_site9436],10
6,TTCTATGAATTCATAGTGCAAATGAGTTATTTTTTC [GTGCAC_site9709],9.52
7,TTATTATTGTTATGTTGTACTTTTACAAACTTTTTG [XGTACX_site8797],9.7
8,AAGAAAATAGGGTTCATAGGATTATACTTTTGGAAT [TGCATGCA_negctrl_site80],9.66
9,TATTTTATCTAAGGATGTACATTATTAAGAAAATGT [XGTACX_site6123],9.43
10,ATATATTTATTAAGGTGTACAAAAATTATGTTGCAT [XGTACX_site7546],9.61
11,CTTTTTTAAATTATTGCACACAAAAATGAAAGGAAA [CACACA_site8412],9.67
12,ACATCAAGCAGACACACACACACACCCACCCACCGA [CACACA_site371],10.7
13,TAGAAATATAATTAATGTACATATGATATTATATAT [XGTACX_site923],9.62
14,ATTTATTTATATAGAAGTACATATTTATTTATATAT [XGTACX_site6283],9.53
15,TTGTGTTCTTATTTTTACACCGAAAAATATTAAAAG [CACACA_negctrl_site535],9.53
16,CCTTTATACATTTTCTGTACTGATATATATTAAAAA [XGTACX_site8467],9.51
17,GTATGAAAAAAAATATGTACACATATATATTTGGTA [XGTACX_site6309],9.79
18,ATATATATATATACAACACACATGTAATATATAAAT [CACACA_site3294],9.94
19,TACTGATCCACATTTATACACACCTCGGTTTGTAGA [CACACA_site417],9.74
20,TTTTTAAATATATAATAGAATTGATTGTATTATATA [CACACA_negctrl_site196],9.46
21,TATAGATTCTTTTAATGTACATGTCTTTTCATTTCC [XGTACX_site8348],9.62
22,ATATAAAAAAAAAAAAAAAAATATATATATATATAT [GTGCAC_negctrl_site251],9.25
23,TTGGTTTGAAAGAAAGAAATTATTAAAAAGGAAATA [CACACA_negctrl_site26],9.26
24,GATATACTGTCAATTCTACACACCATAGGGGGAGCA [CACACA_site8562],10.3
